# In PubChem BioAssay AID624171 (National Center for Advancing Translational Sciences (NCATS), 2012):
# The campaign covered roughly 410,000 compounds. About 1,200 (0.29%) were called active. The inconclusive results got no clear call from the source; some entries with a clear call stand among them for comparison. The call rests on the fitted dose curve; in most records, active means well fitted activation curve with a large enough effect; inconclusive means small, poorly fitted or top-dose-only effect; inactive means flat fitted curve, though single readings scatter. Potencies beside an inconclusive call are fits to weak or partial responses and may not hold up.
# Assay: qHTS of Nrf2 Activators; further: nearly all actives have a fitted effect of over 65% in size
# Conditions: AREc32 ARE-luciferase reporter (MCF7-derived line), luminescence, 24 h; series mostly up to 46.1 µM
# Method in brief: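 Reporter line AREc32 (ARE-Fluc), seeded overnight in OPTI-MEM with 5% FBS; compound pin-transferred, 24 hr at 37 deg C, 5% CO2; luminescent read-out.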
# Potency means the concentration at half of the fitted maximal effect; tags describe the fitted curve by direction and shape.
row,Compound,Potency
1,COc1ccc(N/C=C(\C2OC(=O)c3ccccc32)[N+](=O)[O-])cc1 (stereo not given),"inconclusive: 20 µM [activator, single point]"
2,Oc1ccccc1C=NN=Cc1ccccc1Cl,"inconclusive: 17.8 µM [activator, single point]"
3,O=C(CSc1cccc[n+]1[O-])c1cc(Cl)ccc1Cl,"inconclusive: 11.2 µM [activator, partial curve, poor fit]"
4,CC(C)c1ccc2[nH]c3c(c2c1)CCC/C3=N\NC(=O)c1ccncc1,"inconclusive: 17.8 µM [activator, single point]"
5,Cc1ccc(C)c(-n2nnnc2Sc2nc([N+](=O)[O-])nn2C)c1,"inconclusive: 15.8 µM [activator, single point]"
6,O=C(NNC(=O)c1cc(-c2ccncc2)nc2ccccc12)c1ccccc1F,"inconclusive: 20 µM [activator, single point]"
7,COc1ccc(C(=O)Nc2ccc(O)c3ccccc23)cc1,"inconclusive: 11.2 µM [activator, single point]"
8,N#C/C(=C(/O)c1ccc(Br)s1)c1nc2ccccc2[nH]1,"inconclusive: 3.16 µM [activator, full curve]"
9,BrC(/C=N/N1CCN(Cc2ccccc2)CC1)=C/c1ccccc1,"inconclusive: 17.8 µM [activator, single point]"
10,COc1ccc(CCNS(=O)(=O)c2ccc(N3CCCC3=O)cc2)cc1,inactive
11,COc1ccccc1/C=C/C=C(\C#N)C(=O)NC(C)c1ccccc1 (stereo not given),"inconclusive: 17.8 µM [activator, single point]"
12,Cc1ccc(Cc2nc3ccccc3nc2SCC(=O)NCCC(C)C)cc1,inactive
13,Nc1ccc(N(c2ccccc2)c2ccc(N)cc2)cc1,inactive
14,Cc1cc(NC(=O)c2ccc([N+](=O)[O-])o2)ccc1NC(=O)c1ccco1,"inconclusive: 5.62 µM [activator, single point]"
15,O=C(NCC(=O)N1CCN(C/C=C/c2ccccc2)CC1)c1ccc(OC(F)F)cc1,inactive
16,O=C(NCc1ccc2c(c1)OCO2)c1ccccc1,inactive
17,FC(F)(F)c1cc(-c2ccco2)nc(NCc2ccccc2)n1,"inconclusive: 11.2 µM [activator, partial curve]"
18,Cn1c(NC(=O)/C=C/c2ccccc2)cc(=O)n(C)c1=O,active: 7.08 µM
19,Cc1c(NC(=O)c2nn3c(C(F)(F)F)cc(-c4ccccc4)nc3c2Br)c(=O)n(-c2ccccc2)n1C,"inconclusive: 22.4 µM [activator, single point]"
20,O=C(CSc1nnc(-c2ccco2)o1)c1ccccc1,"inconclusive: 25.1 µM [activator, single point]"
21,CCN1C/C(=C/c2cccc([N+](=O)[O-])c2)C(=O)/C(=C/c2cccc([N+](=O)[O-])c2)C1,active: 12.6 µM
22,c1ccc(-c2sc3ccccc3c2-c2ccc(OCCN3CCOCC3)cc2)cc1,inactive
23,CC(OC(=O)CNC(=O)c1ccc(Cl)c([N+](=O)[O-])c1)C(=O)NC1CCCCC1C (stereo not given),"inconclusive: 35.5 µM [activator, partial curve, poor fit]"
24,CC(=O)NCCNc1nc2c(-c3cccc(C(F)(F)F)c3)nnn2c2ccccc12,"inconclusive: 11.2 µM [activator, partial curve]"

row,Compound,Potency
1,COc1cccc(OCc2cc(C3Nc4ccccc4C(=O)N3Cc3ccco3)ccc2OC)c1 (stereo not given),inactive
2,O=C(O)c1ccccc1OCc1nc2ccccc2s1,"inconclusive: 11.2 µM [activator, partial curve, poor fit]"
3,Cn1c(SCC(=O)Nc2ccccc2F)nc2c([nH]c3ccccc32)c1=O,inactive
4,N/C(=N\OC(=O)c1ccccc1Br)c1ccc([N+](=O)[O-])cc1,"inconclusive: 20 µM [activator, single point]"
5,COc1ccccc1NC(=O)Nc1ccc(F)c(F)c1,"inconclusive: 17.8 µM [activator, single point]"
6,Cc1cc(C(=O)CSc2nnc(-c3cccs3)n2Cc2ccccc2)c(C)n1C,inactive
7,O=C(Nc1ccccc1N1CCN(C(=O)c2ccc(Cl)cc2)CC1)c1ccc([N+](=O)[O-])o1,"inconclusive: 7.08 µM [activator, partial curve, poor fit]"
8,COc1ccc(N2CCN(C(=O)c3ccc(N(C)S(=O)(=O)c4ccc(C)cc4)cc3)CC2)cc1,inactive
9,COc1cccc(NC(=O)CN2C(=O)C3(SCC(=O)N3c3cc(C)cc(C)c3)c3ccccc32)c1 (stereo not given),inactive
10,COC(=O)c1sc(NC(=O)c2ccco2)nc1C,"inconclusive: 2.51 µM [activator, full curve]"
11,Cc1sc2nc(-c3ccco3)oc(=O)c2c1C,"inconclusive: 11.2 µM [activator, single point]"
12,CC(=O)N(\C=C/C=C/C=C1\Sc2ccccc2C1=O)c1ccccc1,"inconclusive: 20 µM [activator, single point]"
13,O=C(Nc1ccccc1)C(Cl)C(=O)c1ccccc1 (stereo not given),active: 14.1 µM
14,CCOc1cc(C(=O)N/N=C/C(Br)=C/c2ccccc2)cc(OCC)c1OCC,"inconclusive: 22.4 µM [activator, single point]"
15,CCOC(=O)NC1(Nc2cccc(Cl)c2)Oc2ccccc2O1,"inconclusive: 25.1 µM [activator, single point]"
16,COc1cc(C=O)ccc1Oc1nnnn1-c1ccc(C(N)=O)cc1,"inconclusive: 20 µM [activator, single point]"
17,O=C(C=Cc1cccnc1)c1ccccc1,"inconclusive: 35.5 µM [activator, single point]"
18,Cc1cc(NS(=O)(=O)c2ccc(NC(=O)/C=C/c3c(F)cccc3Cl)cc2)no1,"inconclusive: 12.6 µM [activator, single point]"
19,Cc1ccc(Cn2c(CN(C)Cc3ccccc3)nc3c2c(=O)n(C)c(=O)n3C)cc1,inactive
20,S=c1[nH]nc(-c2ccccc2)n1/N=C/c1cccc(Cl)c1,"inconclusive: 15.8 µM [activator, single point]"
21,Cc1ccc(C(=O)Nc2ccccc2[N+](=O)[O-])cc1S(=O)(=O)N1CCOCC1,"inconclusive: 35.5 µM [activator, single point]"
22,COc1ccc(C(CNC(=O)C(C)Oc2ccc(Br)cc2)N2CCOCC2)cc1 (stereo not given),inactive
23,CC(=O)c1cc2c(cc1NC(=O)CSc1nc3ccccc3o1)OCO2,"inconclusive: 2.24 µM [activator, full curve, poor fit]"
24,CCOc1ccc(OCC)c(NC(=O)CN2CCN(c3ccc(C)cc3C)CC2)c1,inactive

row,Compound,Potency
1,Cc1ccc(NC(=O)Cn2sc3ccccc3c2=O)cc1,"inconclusive: 22.4 µM [activator, single point]"
2,O=C(/C=C/c1ccccc1)c1ccc2c3c(cccc13)CC2,"inconclusive: 25.1 µM [activator, single point]"
3,N=C1SCC(=O)N1c1ncc(Cc2ccc(F)cc2)s1,"inconclusive: 31.6 µM [activator, single point]"
4,Cc1cccc(NC(=O)/C=C/c2ccc([N+](=O)[O-])s2)c1,"inconclusive: 0.891 µM [activator, full curve, poor fit]"
5,COCCNc1nc2cc(-c3cccc(C(F)(F)F)c3)sc2c(=O)n1C,"inconclusive: 2 µM [activator, partial curve, poor fit]"
6,N/C(=N\OC(=O)c1cc(Cl)ccc1Cl)c1cccnc1,"inconclusive: 1.12 µM [activator, full curve, poor fit]"
7,Cc1ccc(/C=C/C(=O)c2ccc([N+](=O)[O-])o2)cc1,"inconclusive: 4.47 µM [activator, full curve]"
8,O=C(O)CCCn1c(O)c(C=C2N=c3ccccc3=N2)sc1=S,active: 14.1 µM
9,CCOc1ccc(C(=O)C(CCC(CN(C)C)C(=O)c2ccc(OCC)cc2)CN(C)C)cc1 (stereo not given),"inconclusive: 2.82 µM [activator, single point]"
10,CC(=O)NCC(=O)NC1CCCc2c1cnn2-c1ccc(C(C)(C)C)cc1 (stereo not given),inactive
11,CCOc1ccccc1NS(=O)(=O)c1c(C(=O)OC)sc2cccc(F)c12,"inconclusive: 10 µM [activator, partial curve, poor fit]"
12,O=c1/c(=C/c2ccc([N+](=O)[O-])cc2)sc2n1CCCN=2,"inconclusive: 22.4 µM [activator, single point]"
13,CC(=O)Nc1nc(C)c(-c2csc(Nc3cccc([N+](=O)[O-])c3)n2)s1,inactive
14,O=C1C2C3C=CC(CC3)C2C(=O)N1/N=C/c1c[nH]c2ccccc12 (stereo not given),inactive
15,COC(=O)c1sccc1NC(=O)c1ccccc1[N+](=O)[O-],active: 11.2 µM
16,O=C(Nc1ccccc1C(=O)O)c1ncn[nH]1,inactive
17,N/C(=N\OC(=O)c1cccc(F)c1)c1cccc([N+](=O)[O-])c1,"inconclusive: 3.55 µM [activator, partial curve, poor fit]"
18,CCOc1cc(/C=N/Nc2ncc(C)c(=O)[nH]2)ccc1O,"inconclusive: 17.8 µM [activator, single point]"
19,Nc1c(C(=O)NCc2ccco2)nnn1-c1ccccc1,inactive
20,O=C(C1CCCCC1)N1C[C@H](n2cc(-c3ccc(F)cc3)nn2)[C@@H](O)C[C@@H]1c1ccc(Cl)cc1,inactive
21,CCCNC(=O)c1cc(-c2ccc(OC)cc2)n(CCCOC)c1C,"inconclusive: 12.6 µM [activator, partial curve, poor fit]"
22,CCCn1c(CC)nc([N+](=O)[O-])c1Sc1ncn[nH]1,"inconclusive: 17.8 µM [activator, partial curve, poor fit]"
